Reference: paper PMC4336329 (PLoS ONE, 2015)
Out of some 310,000 compounds screened, about 14,000 (4.5%) showed an effect of 50% or more. Effects have a minus sign here. The list shows a part of the results.

Each compound was assayed against human ether-à-go-go-related gene (hERG) potassium channel (human, UniProt Q12809) (assay: primary screen, population patch clamp on CHO cells stably expressing hERG).
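Also: peak tail current of the secondary pulse compared with the same well before compound.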

Sequence of human ether-à-go-go-related gene (hERG) potassium channel (Q12809 whole entry, looked up): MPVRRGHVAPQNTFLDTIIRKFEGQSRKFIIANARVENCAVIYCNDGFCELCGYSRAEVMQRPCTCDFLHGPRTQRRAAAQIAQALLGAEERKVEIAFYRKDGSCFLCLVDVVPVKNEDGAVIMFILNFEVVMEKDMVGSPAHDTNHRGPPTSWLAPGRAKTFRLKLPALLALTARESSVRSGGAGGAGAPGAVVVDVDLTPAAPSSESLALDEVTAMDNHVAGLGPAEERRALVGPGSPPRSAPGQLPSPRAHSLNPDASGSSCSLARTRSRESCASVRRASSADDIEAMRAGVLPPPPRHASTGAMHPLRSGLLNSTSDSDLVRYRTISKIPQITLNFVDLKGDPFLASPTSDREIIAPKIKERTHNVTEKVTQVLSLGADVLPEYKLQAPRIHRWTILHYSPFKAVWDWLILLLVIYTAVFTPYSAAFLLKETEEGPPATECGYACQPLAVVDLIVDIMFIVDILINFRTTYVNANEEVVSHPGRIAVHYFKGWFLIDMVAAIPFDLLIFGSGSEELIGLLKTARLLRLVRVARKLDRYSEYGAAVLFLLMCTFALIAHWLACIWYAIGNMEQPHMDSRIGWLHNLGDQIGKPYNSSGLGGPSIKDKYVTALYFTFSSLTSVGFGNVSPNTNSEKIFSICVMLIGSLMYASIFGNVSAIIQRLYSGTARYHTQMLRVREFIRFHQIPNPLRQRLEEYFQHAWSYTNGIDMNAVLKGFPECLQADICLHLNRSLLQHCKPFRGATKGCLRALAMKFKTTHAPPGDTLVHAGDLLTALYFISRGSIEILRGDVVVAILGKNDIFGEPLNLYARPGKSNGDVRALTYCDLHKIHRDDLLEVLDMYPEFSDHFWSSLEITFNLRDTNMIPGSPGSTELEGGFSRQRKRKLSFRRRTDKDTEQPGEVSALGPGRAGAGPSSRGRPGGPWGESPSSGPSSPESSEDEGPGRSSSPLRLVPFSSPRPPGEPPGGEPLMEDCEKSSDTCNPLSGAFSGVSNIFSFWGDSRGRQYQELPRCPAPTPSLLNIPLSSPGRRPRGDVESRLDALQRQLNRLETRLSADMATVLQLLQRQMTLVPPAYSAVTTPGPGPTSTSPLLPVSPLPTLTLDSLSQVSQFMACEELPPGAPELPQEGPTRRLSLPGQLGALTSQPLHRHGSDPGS

Going from CCCc1nc(SCC(=O)N2CCOCC2)c2c(C)c(C)sc2n1 to CN(C)C(=O)CSc1ccc(S(=O)(=O)N2CCOCC2)cn1, the “hERG current change (%, negative = inhibition) at 10uM” value rises from -26.1% to 10.6%.

Compared with COC(=O)c1ccc(COc2ccc(-c3nn[nH]n3)cc2)cc1, Cc1cccc(NC(=O)c2ccc(OCC(=O)NCc3ccccc3)cc2)c1C is higher in “hERG current change (%, negative = inhibition) at 10uM” value: -0.804% for the first, 2.51% for the second.

First: CCOC(=O)C1CCN(C(=O)COC(=O)c2oc3ccc(OC)cc3c2C)CC1
Second: CCOC(=O)c1cccc(NC(=O)C2CCN(S(=O)(=O)c3cccs3)CC2)c1
The “hERG current change (%, negative = inhibition) at 10uM” value of the first is lower: -55.6% for the first, -27.9% for the second.

Going from CC(=O)c1ccc(-n2c(C)c(C(C)=O)c3cc(O)ccc32)cc1 to CC(=O)c1ccccc1NC(=O)c1ccc(N2CCCC2=O)cc1, the “hERG current change (%, negative = inhibition) at 10uM” value falls from 8.94% to -1.78%.

Compared with CCc1c(C)sc(NC(=O)c2cccs2)c1C#N, O=C(Nc1ccon1)c1ccc(Cl)s1 is higher in “hERG current change (%, negative = inhibition) at 10uM” value: -1.68% for the first, 10.4% for the second.

First: CCOC(=O)c1c(CSc2ccccc2)oc2cc(Br)c(O)c(CN(C)C)c12.Cl
Second: COC(=O)c1cc(NC(=O)c2ccccc2)c(=O)oc1C
The “hERG current change (%, negative = inhibition) at 10uM” value of the first is lower: 8.53% for the first, 19.4% for the second.

First: Cc1ccc(-c2cc(C(=O)Nc3nn[nH]n3)c3ccccc3n2)c(C)c1
Second: O=C(Nc1nn[nH]n1)c1cccc([N+](=O)[O-])c1
The “hERG current change (%, negative = inhibition) at 10uM” value of the first is higher: 1.91% for the first, -9.99% for the second.

Compared with Cc1ccc2c(=O)oc(N(C)C)nc2c1, Cc1ccc(S(=O)(=O)c2nc(-c3ccco3)oc2SC(C)C)cc1 is lower in “hERG current change (%, negative = inhibition) at 10uM” value: 4.34% for the first, -20.4% for the second.

Compared with COc1ccc(OC)c(S(=O)(=O)Nc2cc3c4c(c2)C(C)C(=O)N4CCC3)c1 (stereo not shown), Cc1ccc(S(=O)(=O)N2CC(O)CC2C(=O)Nc2ccc3c(c2)CCC3)cc1 (stereo not shown) is lower in “hERG current change (%, negative = inhibition) at 10uM” value: 1.75% for the first, -12.3% for the second.

First: Cc1ccc(-c2cc(C(=O)N3CC4(C)CC3CC(C)(C)C4)no2)cc1 (stereo not shown)
Second: Cc1ccc(-n2nc(C(=O)N3CCOCC3)cc2-c2ccc(Cl)cc2)cc1
The “hERG current change (%, negative = inhibition) at 10uM” value of the first is higher: -2.1% for the first, -83.3% for the second.

Compared with CCC(=O)Nc1cc(C(F)(F)F)ccc1N1CCOCC1, CC(C)(C)CC(=O)Nc1ccccc1N1CCN(c2ccccc2)CC1 is lower in “hERG current change (%, negative = inhibition) at 10uM” value: 1.09% for the first, -10.1% for the second.

Going from O=S(=O)(NC1CC1)c1cccc(S(=O)(=O)N2CCCC2)c1 to COCC(C)NC(=O)C1CCN(S(=O)(=O)c2ccc3ccccc3c2)CC1 (stereo not shown), the “hERG current change (%, negative = inhibition) at 10uM” value falls from -1.49% to -18.8%.

Going from CC(=O)Nc1cc(C(=O)OCc2cccc([N+](=O)[O-])c2)ccc1C to O=C(O)c1cc(NN=Nc2cccc([N+](=O)[O-])c2)cc([N+](=O)[O-])c1, the “hERG current change (%, negative = inhibition) at 10uM” value rises from -4.3% to 2.18%.

Compared with CC(Sc1nnc(C2CC2)n1C1CC1)C(=O)Nc1cccc(S(=O)(=O)N2CCOCC2)c1 (stereo not shown), Cc1nc2cc(F)ccc2n1C1CCN(S(=O)(=O)c2ccccc2)CC1 is lower in “hERG current change (%, negative = inhibition) at 10uM” value: -11.8% for the first, -48.6% for the second.

First: CCOCCCNS(=O)(=O)c1ccc(-n2cnnn2)c(OC)c1
Second: CCn1nnc(-c2ccccc2NC(=O)c2cc(OC)c(OC)c(OC)c2)n1
The “hERG current change (%, negative = inhibition) at 10uM” value of the first is lower: -1.04% for the first, 4.71% for the second.

Compared with COc1ccc(CNC(=O)C2CC(=O)N(c3ccc(OCC(=O)N4CCCCC4)cc3)C2)cc1 (stereo not shown), O=C(c1ccc2nccnc2c1)N1CCCC(N2CCN(c3ccc(F)cc3)CC2)C1 (stereo not shown) is lower in “hERG current change (%, negative = inhibition) at 10uM” value: -0.626% for the first, -9.66% for the second.

Compared with CC1CCCC(C)N1CCCNC(=O)Cn1ncc2c([nH]c3ccccc32)c1=O (stereo not shown), CC(=O)NCCC1CCN(c2nc3nonc3nc2N(C)Cc2ccccc2)CC1 is lower in “hERG current change (%, negative = inhibition) at 10uM” value: 12.3% for the first, -49% for the second.

Compared with O=C1CSC(c2ccco2)N1 (stereo not shown), Cc1sc2c(c1C)CN(Cc1ccncc1)CN2C(=O)c1ccco1 is lower in “hERG current change (%, negative = inhibition) at 10uM” value: 22.9% for the first, -37.5% for the second.

Compared with O=C(CN1CCN(S(=O)(=O)c2ccccc2F)CC1)Nc1ccccc1C(=O)c1ccccc1, O=C(Nc1ccccc1)c1ccccc1NC(=O)c1ccccc1C(=O)O is higher in “hERG current change (%, negative = inhibition) at 10uM” value: -22.8% for the first, 8.6% for the second.

First: CCN(CCCNC(=O)c1[nH]c(C)c(C(C)=O)c1C)c1cccc(C)c1
Second: CCN(C(=O)CSc1nc2nc(C)cc(C)n2n1)c1cccc(C)c1
The “hERG current change (%, negative = inhibition) at 10uM” value of the first is lower: -18.2% for the first, -0.467% for the second.

Compared with Cc1ccc(S(=O)(=O)Cn2nnnc2C(CC(C)C)N2CCN(c3ccc(F)cc3)CC2)cc1 (stereo not shown), CC1CCN(CCc2nc3cc(NS(=O)(=O)c4ccc(F)cc4)ccc3n2C)CC1 is lower in “hERG current change (%, negative = inhibition) at 10uM” value: 0.86% for the first, -70.8% for the second.

Compared with Cc1cc(C(F)(F)F)nc(NCc2cccnc2)n1, Fc1ccc(NCc2cccnc2)cc1F is lower in “hERG current change (%, negative = inhibition) at 10uM” value: 14.9% for the first, 12.2% for the second.

Compared with Cn1cncc1C#Cc1c(C=O)n(C)c2ccccc12, Cn1c(=O)c2c(nc(Oc3ccc4ccccc4c3)n2C)n(C)c1=O is lower in “hERG current change (%, negative = inhibition) at 10uM” value: 19.8% for the first, 6.03% for the second.

First: CC(C)Oc1cccc(C(=O)C2CCCN(C(=O)c3ccnn3C)C2)c1 (stereo not shown)
Second: Cn1nccc1C(=O)N1CCc2ccccc21
The “hERG current change (%, negative = inhibition) at 10uM” value of the first is higher: 2.49% for the first, 0.827% for the second.

Compared with CCN(CC(=O)NC(=O)NCc1ccccc1)Cc1ccccc1, CN(Cc1ccccc1)C(=O)c1[nH]cnc1C(=O)Nc1ccccc1 is higher in “hERG current change (%, negative = inhibition) at 10uM” value: -20.6% for the first, 13.5% for the second.

First: CN(C)c1nc(N)nc(CSc2ncc(Cl)cc2Cl)n1
Second: Cc1nnc(SC(C)C(=O)Nc2ncc(Cl)cc2Cl)n1Cc1ccccc1 (stereo not shown)
The “hERG current change (%, negative = inhibition) at 10uM” value of the first is higher: -3.36% for the first, -67.8% for the second.

Going from CC(C)CNC(=S)N1CCN(c2nc(-c3ccc(Cl)cc3)cs2)CC1 to OC(CN1CCN(c2ccccc2Cl)CC1)c1ccccc1 (stereo not shown), the “hERG current change (%, negative = inhibition) at 10uM” value falls from 17.2% to -42.3%.

Compared with COc1cc(C2C(C(C)=O)=C(O)C(=O)N2c2ccc(Br)cn2)ccc1O (stereo not shown), C/C=C(/C)C(=O)OC1Cc2c(ccc3ccc(=O)oc23)OC1(C)C (stereo not shown) is lower in “hERG current change (%, negative = inhibition) at 10uM” value: -8.43% for the first, -18% for the second.

Compared with O=C(O)c1ccccc1C(=O)Nc1ccccn1, COCCNC(=O)c1ccccc1-c1nc(-c2ccccc2OC)no1 is lower in “hERG current change (%, negative = inhibition) at 10uM” value: 6.84% for the first, -0.723% for the second.

Going from O=C(O)C(=O)O.Oc1ccccc1CN1CCN(C(O)(c2ccccc2)c2ccccc2)CC1 to O=C(COC(=O)CC1Sc2ccccc2NC1=O)NCc1ccccc1 (stereo not shown), the “hERG current change (%, negative = inhibition) at 10uM” value rises from -46% to -21.4%.

Going from Cc1cc2c(c(SCC(N)=O)n1)C(=O)OC2 to Nc1nnc(SCC(=O)c2ccc3ccccc3c2)s1, the “hERG current change (%, negative = inhibition) at 10uM” value falls from 14.9% to 1.25%.

Going from Oc1ccc(N=Nc2n[nH]c(-c3ccccc3)n2)cc1 to C=CCN1C(=O)C2(NNc3ccccc3O2)c2ccccc21 (stereo not shown), the “hERG current change (%, negative = inhibition) at 10uM” value rises from 9.94% to 14.8%.

Compared with Nc1c(C(=O)NCCN2CCOCC2)c2nc3ccccc3nc2n1-c1ccc2c(c1)OCO2, CCOC(=O)c1cnc(-n2cc(C)cn2)nc1Nc1ccccc1OCC is higher in “hERG current change (%, negative = inhibition) at 10uM” value: -33.5% for the first, 14% for the second.

Going from C[C@]12CC[C@H](O)C[C@H]1CC[C@@H]1[C@@H]2C[C@@H](O)[C@]2(C)[C@@H](C3=CC(=O)OC3)CC[C@]12O to Cc1cc(C)c2cc(C(=O)N3CCC(N4CCCCC4)CC3)[nH]c2c1, the “hERG current change (%, negative = inhibition) at 10uM” value falls from 18.3% to -69.2%.

Going from COc1ccc(C(=O)c2nccc3cc(OC)c(OC)cc23)cc1OC to COc1ccccc1NS(=O)(=O)c1ccc(C(=O)NCC(c2ccccc2OC)N(C)C)cc1 (stereo not shown), the “hERG current change (%, negative = inhibition) at 10uM” value falls from 6.21% to -0.121%.

Going from O=C(O)CCC1(c2ccccc2)NC(=O)NC1=O (stereo not shown) to Cc1ccc(-n2cc(CCCCCCCCC(=O)O)nn2)cc1, the “hERG current change (%, negative = inhibition) at 10uM” value falls from 2.53% to -12.3%.

First: Cn1nnnc1SCC(=O)Nc1ccc(Cl)cn1
Second: CCn1c(SCCC(=O)O)nnc1-c1cccnc1
The “hERG current change (%, negative = inhibition) at 10uM” value of the first is higher: 19% for the first, 4.65% for the second.

Compared with Cc1cc(C(=O)O[C@H]2[C@H](Cc3ccccc3)NS(=O)(=O)[C@H]3C[C@@H]4C=C[C@]23O4)ccc1[N+](=O)[O-], COC(=O)C1=CN(Cc2ccccc2)C=C(C(=O)OC)C1c1cc(F)ccc1F is lower in “hERG current change (%, negative = inhibition) at 10uM” value: -1.67% for the first, -12.6% for the second.

Compared with Cc1ccc(S(=O)(=O)Nc2nc3ccc(N)cc3s2)cc1, Cc1cccc(N(C(=O)c2sc(C)nc2C)C(C(=O)NCc2ccco2)c2ccccc2)c1 (stereo not shown) is lower in “hERG current change (%, negative = inhibition) at 10uM” value: -1.87% for the first, -4.88% for the second.

Compared with COC(=O)/C=C1/N/C(=N\c2nc(C)cc(C)n2)N(c2ccccc2)C1=O, Cc1cc(OC(C)C(=O)NCCc2c[nH]c3ccccc23)c2c(C)cc(=O)oc2c1 (stereo not shown) is lower in “hERG current change (%, negative = inhibition) at 10uM” value: 11.9% for the first, -26.9% for the second.

Going from O=C(COc1ccc([N+](=O)[O-])cc1)NN=C1CCCC1 to Cc1cccc(C(=O)N/N=C/c2ccc(OC3CSC3)cc2)c1, the “hERG current change (%, negative = inhibition) at 10uM” value falls from -33.2% to -92.4%.

Compared with Cc1ccc(NC(=O)COC(=O)[C@H](C)N2C(=O)C3CC=CCC3C2=O)cc1S(=O)(=O)N(C)C (stereo partly shown), C/C=C/C=C/C(=O)OCC(=O)Nc1ccc(Cl)cc1 is higher in “hERG current change (%, negative = inhibition) at 10uM” value: -7.63% for the first, 21.3% for the second.

Going from Nc1cc(C(=O)OCC(=O)NCCNC(=O)COC(=O)c2ccc(Cl)c(N)c2)ccc1Cl to CCn1c(CNc2cccc(C(F)(F)F)c2)n[nH]c1=S, the “hERG current change (%, negative = inhibition) at 10uM” value rises from 5.57% to 16.6%.

Going from OCC[C@@H]1C[C@H](O)[C@@H](O)[C@@]2(Cc3ccccc3CO2)O1 to CCc1cc(=O)[nH]c(SCCCF)n1, the “hERG current change (%, negative = inhibition) at 10uM” value falls from 9.18% to -50.2%.
